In PubChem BioAssay AID1508623 (National Center for Advancing Translational Sciences (NCATS), 2021):
Hit rate of the full screen: of about 48,000 compounds, about 450 (0.94%) were called active. About 19% were inconclusive and are not listed. Calls come from the whole dose curve; as a rule, active = well fitted inhibition curve with a large enough effect; inconclusive = small, poorly fitted or top-dose-only effect; inactive = no such curve, though single readings can be large or run the other way. The list shows a part of the results.

Experiment: Primary qHTS for Identification of Small Molecule Inhibitors of Huntingtin Promoter Activity; note: nearly all actives have a fitted effect of over 50% in size
Conditions: HEK293 HTT promoter firefly luciferase reporter (activity 0% = vehicle and -100% = no light), 24 h; series mostly up to 57.5 µM; activity change, negative = inhibition: at the top concentration
Summary of the method: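 HEK293 Fluc reporter, 2,500 cells/well, 24 h pre-culture; cpds up to 57.5 uM final, 24 h 37 degrees C; Dual-Glo, 10 min RT; normalized vehicle = 0%, zero RLU = -100%.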

Structure (SMILES) | activity change, negative = inhibition
CC1=C(C(=O)Nc2ccc(C)cc2C)C(c2ccc(C(=O)O)cc2)n2nc(SCc3ccccc3)nc2N1 (configuration not stated) | inactive: -2.22%
CCOc1ccc(CNC(=O)CC(C)n2nc(C)cc2C)cc1OC (configuration not stated) | inactive: -6.42%
Cc1ccc2c(c1)c1c(c(=O)n(-c3ccccc3)c(=O)n1CC(=O)c1ccc(F)cc1)n2C | inactive: -0.848%
Cc1ccc(NC(=O)c2ccc(CN3CC(=O)N4CCCCC4C3=O)cc2)cc1 (configuration not stated) | inactive: -9.04%
CCc1cccc(NC(=O)Cn2c(=O)n(-c3cccc(Cl)c3)c(=O)c3c2c2cc(C)ccc2n3C)c1 | inactive: -9.96%
COc1ccc(OC)c(CNC(=O)c2cnc3c(C)cccn3c2=O)c1 | inactive: 9.12%
CCc1nn2c(=O)cc(COC(=O)c3ccc(NC(=O)COc4ccc(C)cc4)cc3)nc2s1 | inactive: -21.7%
Cn1c(SCC(=O)N2CCCc3ccccc32)ncc(C(=O)Nc2ccccc2)c1=O | inactive: -15%
CC[C@]1(O)C[C@@H]2CN(CCc3c([nH]c4ccccc34)[C@@](C(=O)OC)(c3cc4c(cc3OC)N(C)[C@H]3[C@@](O)(C(=O)OC)[C@H](OC(C)=O)[C@]5(CC)C=CCN6CC[C@]43[C@@H]65)C2)C1 | inactive
Cc1ccc(C(=O)COC(=O)C(Cc2c[nH]c3ccccc23)NC(=O)c2ccc(C(C)(C)C)cc2)cc1 (configuration not stated) | inactive: -11.7%
CSc1ccc(Cn2nnc(C(=O)Nc3ccc(C)cc3Cl)c2N)cc1 | inactive: 4.5%
Cc1cc(C)cc(NC(=O)CSc2nc(=O)n(Cc3ccccn3)c3c2CCC3)c1 | inactive: 3.13%
CCOC(=O)C(C)Sc1nc(-c2ccccc2Cl)cc(-c2ccccc2)c1C#N (configuration not stated) | inactive: -24.2%
Cc1ccc2[nH]c(=O)c(CN(C(=O)c3cccc(Cl)c3)C(C)(C)C)cc2c1 | inactive: -17.1%
Cc1ccccc1C(=O)Nc1cccc(C(=O)OCc2cc(=O)n3ccsc3n2)c1 | inactive: -1.4%
Cc1cccc(Oc2nc3c(c(=O)n(C)c(=O)n3C)n2Cc2ccccc2)c1C | inactive: -1.22%
Cc1cccc(C)c1OCc1cc(=O)n2c3c(sc2n1)CCCC3 | inactive: -2.98%
Cc1cc(C)cc(NC(=O)Nc2nnc(N(C)C3CCCCC3)s2)c1 | inactive: -13.7%
COc1ccccc1-c1noc(CCCC(=O)NCc2ccco2)n1 | inactive: -12.9%
CCOc1ccc(CCNc2nc3ccccc3n3c(C)nnc23)cc1OCC | inactive: -11.1%
COc1cc(NC(=O)Cn2c(=O)n(CC3CCCO3)c(=O)c3ccccc32)cc(OC)c1 (configuration not stated) | inactive: -4.98%
COc1ccc(C(=O)Nc2nnc(C(C)C)s2)cc1OC | inactive: 72.6%
COc1ccc2sc(N(Cc3cccnc3)C(=O)COc3ccccc3)nc2c1 | inactive: -16.5%
Cc1ccc(NC(=O)c2cc3nc(-c4ccccc4)cc(-c4ccccc4)n3n2)cc1 | inactive: 4.02%
CCn1cnc2c(=O)oc3ccc(S(=O)(=O)Nc4ccc(OC)cc4)cc3c21 | inactive: -5.44%

Structure (SMILES) | activity change, negative = inhibition
COc1ccc(CCNC(=O)c2ccc(Cn3c(=O)c4ccccc4n(Cc4cccc(C)c4)c3=O)cc2)cc1OC | inactive: -7.01%
CCOCCCn1c(=N)c(C(=O)NC2CCCC2)cc2c(=O)n3cc(C)ccc3nc21 | inactive: 1.68%
COc1ccccc1Cc1nc2ccccc2nc1SCC(=O)Nc1cc(Cl)ccc1OC | inactive: -9.76%
CCOC(=O)c1c(S(=O)(=O)N2CCC(C(=O)Nc3ccc(C)cc3C)CC2)c(C)n(C)c1C | inactive: -8.6%
Cc1cc(C)cc(NC(=O)c2cnc3sc(N4CCCC4)nn3c2=O)c1 | inactive: -23.1%
COCCNC(=O)CSc1nc(-c2ccccc2)[nH]c1-c1ccc(OC)cc1 | inactive: -10.7%
C[C@@H]1CC[C@@]2(OC1)OC1CC3C4CC=C5CC(O)CCC5(C)C4CCC3(C)C1[C@@H]2C (some centres not stated) | inactive: -7.14%
CCOc1ccc(NC(=O)C2CCCN(S(=O)(=O)c3c(C)noc3/C=C/N(C)C)C2)cc1 (configuration not stated) | inactive: -28.1%
COc1cccc(-n2c(SCC(=O)Nc3nnc(C)s3)nc3c([nH]c4ccccc43)c2=O)c1 | inactive: -6.08%
Fc1ccc2[nH]c(-c3cccs3)cc2c1 | inactive: 7.5%
CC(C)Cn1c(=O)c2sccc2n2c(CCCC(=O)N3CCN(c4ccc(F)cc4)CC3)nnc12 | inactive: -6.7%
O=C(Nc1cccc(C(F)(F)F)c1)c1cc2nc(-c3ccc4c(c3)OCO4)cc(C(F)(F)F)n2n1 | inactive: -14.3% [at 11.5 µM]
Cc1ccc(-c2nc(CSc3nncn4c3cc3occc34)c(C)o2)cc1 | inactive: 10.2%
NCCc1nc2cccnc2n1-c1ccccc1 | inactive: -2.32%
COc1ccc(C)cc1NC(=O)N1CC(C)Sc2ccccc21 (configuration not stated) | inactive: -0.698%
CC(C)(C)C(O)/C=C/c1ccc2c(c1)OCO2 (configuration not stated) | inactive: 6.79%
O=C(CCN1CCN2CCCC2C1)N1c2ccccc2Sc2ccc(Cl)cc21 (configuration not stated) | inactive: -9.03% [at 25.2 µM]
C[C@@H](C1=C(CCN(C)C)Cc2ccccc21)c1ccccn1 | inactive: 0.832%
Cc1ccc(OCC(=O)NCC2(N(C)C)CCCCC2)cc1C | inactive: -10.5%
Cc1ccc(C)c(NC(=O)Cn2c(=O)n(-c3ccc(CC(=O)NCC4CCCO4)cc3)c(=O)c3ccccc32)c1 (configuration not stated) | inactive: -2.34%
CCCCC(CC)COC(=O)c1ccccc1O (configuration not stated) | inactive: -3.95%
CCCOc1ccc(C(=O)NCC2OCCc3ccccc32)cc1 (configuration not stated) | inactive: 15.6%
Cc1ccc(NC(=O)c2c(C)nc3sc(C(=O)Nc4ccc(F)cc4)c(N)c3c2-c2ccc(C)o2)c(C)c1 | inactive: 2.33%
CC1CN(C(=O)CCC(=O)Nc2cc(F)ccc2F)c2ccccc2S1 (configuration not stated) | inactive: -22%
O=C(O)c1c(O)c(-c2ccccc2)nc2ccccc12 | inactive: 7.27%

Structure (SMILES) | activity change, negative = inhibition
COc1ccc(-n2c(SCC(=O)N3CCc4ccccc43)nc3c([nH]c4ccccc43)c2=O)cc1 | inactive: -7.93%
COc1ccc(C(=O)Nc2ccc3oc(-c4ccc(F)cc4Cl)nc3c2)cc1 | inactive: -2.8%
CCCc1nc2ccccc2n1CC(O)COc1ccc(C(=O)OC)cc1 (configuration not stated) | inactive: -10.4%
CCCn1c(=O)c2[nH]c(C34CC5CC3C[C@@H](C5)C4)nc2n(CCC)c1=O | inactive: 4.41%
CCC1CCCCN1S(=O)(=O)c1ccc(C(=O)Nc2sc3c(c2C(N)=O)CCC3)cc1 (configuration not stated) | inactive: -25.1%
O=C(CSc1nnc(-c2ccccc2F)o1)Nc1cccc(C(F)(F)F)c1 | inactive: 6.88%
COCCCN1C(=O)c2ccccc2CC1(C)C(=O)NC1CCCCC1 (configuration not stated) | inactive: -14.7%
COc1ccc(C2C(C(=O)Nc3ccc(Cl)cc3)=C(C)Nc3nc(SCc4cccc(C)c4)nn32)cc1OC (configuration not stated) | inactive: 1.51%
CC(C)(C)OC(=O)N1CCC(c2c(C(=O)N3CCN(c4ccccn4)CC3)cnn2-c2ccccc2)CC1 | inactive: 1.45%
COc1ccc(-c2nc(C)c(CCNC(=O)c3cccs3)s2)cc1OC | inactive: 18.8%
COc1ccccc1CNc1cc(C)nc2nc(-c3ccc(C)cc3)nn12 | inactive: -19.9%
c1ccc(-c2noc(-c3cccnc3NCc3ccco3)n2)cc1 | inactive: 62%
COCCNC(=O)Cn1c(=O)n(CCCCCC(=O)NCc2ccccc2Cl)c(=O)c2sccc21 | inactive: -2.67%
CCN(CC)CCCNC(=O)CCCn1ncn2c(cc3occc32)c1=O | inactive: -18.4%
CC(C)(C)C1CCc2c(sc3nc(-c4cc5ccccc5oc4=O)[nH]c(=O)c23)C1 (configuration not stated) | inactive: 0.941%
COc1ccccc1-c1noc(-c2ccc(NC3CCCCC3)c([N+](=O)[O-])c2)n1 | inactive: -8.13%
COCCCNC(=O)c1cnc2sc(N3CCCCCC3)nn2c1=O | inactive: 7.49%
COc1cccc(NC(=O)CCc2nc3c(C)nn(-c4ccc(C)cc4)c3n(C)c2=O)c1 | inactive: -5.95%
O=c1c(=O)n(Cc2ccc(Cl)cc2)ccn1Cc1ccc(F)cc1 | inactive: 1%
Cc1oc2ncn(CC(C)C)c(=O)c2c1C(=O)NCCc1ccccc1 | inactive: -5.14%
Cc1ccc(-c2nc(CNC(=O)Nc3ccccc3)c(C)o2)cc1 | inactive: -1.11%
COc1ccc(-c2cn3cccnc3n2)cc1NC(=O)Cc1ccccc1 | inactive: 3.2%
CCc1nc2cccnc2n1-c1ccc(CC(=O)Nc2c(C)cccc2C)cc1 | inactive: -14.8%
Cc1cc(C)n2c(Nc3ccc(C(C)C)cc3)c(-c3ccsc3)nc2n1 | inactive: 4.04%
Cc1ccccc1CNC(=O)c1oc2c(c1C)-c1[nH]ncc1CC2 | inactive: 22%

Structure (SMILES) | activity change, negative = inhibition
Cc1ccc2nc(Cl)c3cc(C(=O)N4CCCCC4C)sc3c2c1 (configuration not stated) | inactive: -8.16%
COc1ccc(Cl)cc1NC(=O)CN1C(=O)C(C)(C)c2cc(S(=O)(=O)N3CCCCC3)ccc21 | inactive: -47.9%
O=P(O)(O)C(O)(Cc1cccnc1)P(=O)(O)O | inactive
Cc1cccc(-n2ncc(C(=O)N3CCN(c4ccc(C)cc4C)CC3)c2C2CCN(C(=O)OC(C)(C)C)CC2)c1 | inactive: 3.33%
Cc1cn(C)c(CC(=O)NCc2ccccc2)c1C(=O)O | inactive: -9.46%
CCOc1ccc(C2c3c(oc4ccc(C)cc4c3=O)C(=O)N2CCCN2CCOCC2)cc1 (configuration not stated) | inactive: -4.17%
CSc1ncc(C(=O)N2CCN(c3cccc(Cl)c3)CC2)c(C)n1 | inactive: -12.8%
O=C(CCCn1c(=O)c2cccn2c2cccnc21)NCc1ccccc1Br | inactive: 4.89%
CCOc1ccc(CCNC(=O)Cn2nnc(-c3ccccc3Cl)n2)cc1OCC | inactive: -6.69%
Cc1c(C)n(Cc2ccc(F)cc2)c2ccc(C(=O)NCc3ccco3)cc12 | inactive: -13.3%
O=C(NCCN1CCN(c2cccc(Cl)c2)CC1)Nc1ccccc1C(F)(F)F | inactive: -25.8%
O=C(CSc1ncc(-c2ccccc2)[nH]1)Nc1ccc(Cl)cc1 | inactive: 2.48%
Cc1ccc(CNc2nc(-c3ccco3)nn2S(=O)(=O)c2ccc3ccccc3c2)cc1 | inactive: 52%
CCOC(=O)c1sc2ccccc2c1S(=O)(=O)N1CCN(c2cccc(C)c2)C(C)C1 (configuration not stated) | inactive: -19.4%
CC(C)COc1ccc(C(=O)N2CCCCC2CCN2CCCCC2)cc1 (configuration not stated) | inactive: -8.4%
COc1ccc(CCNC(=O)c2cnn(-c3cccc(C)c3)c2C2CCN(C(=O)OC(C)(C)C)CC2)cc1OC | inactive: -11.8%
Cc1cccc(-c2nnn3c2nc(NCc2ccc4c(c2)OCO4)c2ccccc23)c1 | inactive: -3.62%
COc1cccc2c1ncc1c(-c3ccc(C)cc3)nn(-c3ccc(F)cc3)c12 | inactive: 0%
CC(=O)c1ccc(NC(=O)c2noc3c2CSc2ccccc2-3)cc1 | inactive: 22%
CCc1cc(C(=O)Nc2sc(C)c(CC)c2C#N)no1 | inactive: 38.2%
CCCCOc1cccc(C(=O)Nc2cc(NC(=O)c3ccco3)ccc2OC)c1 | inactive: -25.5%
Cc1ccc(CNC(=O)c2c(O)nc3cc(C)ccn3c2=O)cc1 | inactive: -2.04%
